Test results reported in patent publication US12642271B2, “Active compound combinations comprising a (thio)carboxamide derivative and a fungicidal compound” (Bayer CropScience Aktiengesellschaft, priority 2011, dated 2026).
Where two headings read alike, the source gives them in different places.

Legend:
[1] = system: Venturia inaequalis; experiment: Venturia test (apples)/preventive; settings: 240 h
Protocol: The test is evaluated 10 days after the inoculation.

[2] = system: Sphaerotheca fuliginea; experiment: Sphaerotheca test (cucumbers)/preventive; settings: Podosphaera fuliginea, 168 h, read-out: Efficacy in % found; for pest or weed control at 0.125 ppm: 0.125 ppm a.i.; for pest or weed control at 1.25 ppm: 1.25 ppm a.i.
Protocol: After the spray coating has dried on, the plants are inoculated with an aqueous spore suspension of Sphaerotheca fuliginea.
The test is evaluated 7 days after the inoculation.

[3] = read-out: Efficacy in % found, Table 2a, 0.125 ppm a.i.
[4] = read-out: Efficacy in % found, Table 2b, 0.125 ppm a.i.
[5] = read-out: Efficacy in % found, Table 2d, 0.125 ppm a.i.

## Cn1nc(C(F)F)c(C(=O)N(Cc2c(Cl)cccc2C(F)(F)F)C2CC2)c1F [A17, N-[2-chloro-6-(trifluoromethyl)benzyl]-N-cyclopropyl-3-(difluoromethyl)-5-fluoro-1-methyl-1H-pyrazole-4-carboxamide]
[1]; [3]
  pest or weed control at 0.125 ppm: 0%

## Cn1nc(C(F)F)c(C(=O)N(Cc2c(C(F)(F)F)ccc(Cl)c2F)C2CC2)c1F [A18, N-[3-chloro-2-fluoro-6-(trifluoromethyl)benzyl]-N-cyclopropyl-3-(difluoromethyl)-5-fluoro-1-methyl-1H-pyrazole-4-carboxamide]
[1]; [3]
  pest or weed control at 0.125 ppm: 0%
[1]; [4]
  pest or weed control at 0.125 ppm: 0%

## Cn1nc(C(F)F)c(C(=O)N(Cc2cc(Cl)ccc2C(F)(F)F)C2CC2)c1F [A15, N-[5-chloro-2-(trifluoromethyl)benzyl]-N-cyclopropyl-3-(difluoromethyl)-5-fluoro-1-methyl-1H-pyrazole-4-carboxamide]
[2]; Table 4c
  pest or weed control at 0.125 ppm: 50%
[1]; [3]
  pest or weed control at 0.125 ppm: 0%

## CC(C)c1ccccc1CN(C(=O)c1c(C(F)F)nn(C)c1F)C1CC1 [A1, N-cyclopropyl-3-(difluoromethyl)-5-fluoro-N-(2-isopropylbenzyl)-1-methyl-1H-pyrazole-4-carboxamide]
[2]; Table 4c
  pest or weed control at 0.125 ppm: 0%
[1]; [3]
  pest or weed control at 0.125 ppm: 0%
[1]; [4]
  pest or weed control at 0.125 ppm: 15%

## CC(C)(C)C(O)(CCc1ccc(Cl)cc1)Cn1cncn1 (stereo not shown) [B1.47, tebuconazole]
[2]; Table 4d
  pest or weed control at 1.25 ppm: 0%

## OC(Cc1ccccc1Cl)(Cn1nc[nH]c1=S)C1(Cl)CC1 (stereo not shown) [B1.41, prothioconazole]
[1]; [5]
  pest or weed control at 0.125 ppm: 78%

## CC(C)c1ccc(Cl)cc1CN(C(=O)c1c(C(F)F)nn(C)c1F)C1CC1 [A5, N-(5-chloro-2-isopropylbenzyl)-N-cyclopropyl-3-(difluoromethyl)-5-fluoro-1-methyl-1H-pyrazole-4-carboxamide]
[2]; Table 4d
  pest or weed control at 0.125 ppm: 0%
[1]; [5]
  pest or weed control at 0.125 ppm: 0%

## CCCC1COC(Cn2cncn2)(c2ccc(Cl)cc2Cl)O1 (stereo not shown) [B1.40, propiconazole]
[2]; Table 4d
  pest or weed control at 1.25 ppm: 57%
